From the supplement of paper PMC10126150
Sequences with one replicate were seen in a single cluster, so their values are uncertain.

Test system: ATP
Assay: switch fluorescence ratio, 500 uM ATP over buffer (Cy3 cluster intensity, sum of 5 cycles each) (fold (ratio)); higher = stronger signal-on switching upon ATP binding; sequences stand for … in TCGTCGGCAGCGTCAGATGTGTATAAGAGACAGTTTTTTTTTTTTTTTTTTTTTTTTT…TC
Conditions: aptamer strand: ATP DNA aptamer (quencher-CACCTGGGGGAGTATTGCGGAGGAAGG + anchor), 100 nM annealed; ATP concentration: 500 uM; one replicate
In short: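 Switching-strand clusters labelled with Cy3 on a modified Illumina MiSeq flow-cell were annealed to 100 nM quencher-labelled ATP aptamer, imaged in selection buffer, and re-imaged after 15 min with 500 uM ATP at 22 °C. This was done over five cycles with NaOH stripping and re-annealing in between. The fluorescence ratio is summed target-cycle over summed buffer-cycle Cy3 intensity per cluster, averaged per switch-domain sequence, excluding clusters outside 100-1000 RFU.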
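Note: ATP exposure 15 min at 22 °C before imaging.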

Row | Sequence | switch fluorescence ratio
1 | GCAATGGAAG | 1.01
2 | CCGAGTCGGT | 1.03
3 | TTGTGTAA | 0.962
4 | CTTGTACAAC | 1
5 | CATATTAAAT | 1.03
6 | TCTTCCCCGA | 2.85
7 | TATCGAGAAG | 0.997
8 | AGATTTGTGA | 1.03
9 | GGCAAATCAG | 1.02
10 | GAATACAACC | 1.07
11 | TCGCTGTGGA | 1.04
12 | ACATATGGTC | 1.04
13 | TTAAAATCGT | 1.02
14 | GTAATTTTAG | 0.971
15 | CAAACGTCGT | 1.01
16 | GTTACCCACA | 1.45
17 | GGCACCCCTG | 0.979
18 | ATATTGATAC | 1.02
19 | TTCCATGTAA | 1
20 | TCACTATAGA | 1.09
21 | GCCATCCGAG | 1.42
22 | ATCGTGGTAA | 0.975
23 | GATCTCGCTT | 1

Row | Sequence | switch fluorescence ratio
24 | GCGGGAATG | 1.01
25 | GGCCAAGTCT | 1.01
26 | ACTATGACGC | 1.03
27 | GCTGAAGTT | 0.999
28 | CACTCTCCGC | 3.35
29 | TATTACGTTC | 1.04
30 | AACATAATC | 1.04
31 | GGGCATTGGC | 1.07
32 | TATTGCCACG | 1
33 | TATCTATTGT | 0.989
34 | TATCGTTGCG | 0.97
35 | GGGCATTCGG | 0.974
36 | CAGGGACTTT | 0.947
37 | GCGACAAATC | 1.27
38 | TGGCGAAGGG | 1.05
39 | TTCGCTGGTC | 1.13
40 | AGTAACTCAC | 1.15
41 | TTTTTCACCT | 0.986
42 | ATTGCTAGTG | 0.965
43 | ACAGGATATT | 0.986
44 | GGGACATGAG | 0.975
45 | CAGTGTTGCG | 1
46 | GTTTTGCCTT | 0.963

Row | Sequence | switch fluorescence ratio
47 | GTATGAGGAA | 1.02
48 | AGGCGGGTAC | 1.08
49 | GTGCAGAGCA | 0.999
50 | ACGTTTGGAC | 1.05
51 | TCGAACGACG | 1.23
52 | GAATTCTTCC | 1.79
53 | CAACTTGTGC | 0.997
54 | GTGGCTGACA | 1.06
55 | GTTAGCAGTT | 1.03
56 | AGTACTGCGC | 1.03
57 | GGGCTACCGA | 0.988
58 | TGGTATTAGG | 0.971
59 | ACAAGTGTCA | 0.988
60 | GTGACCAGGA | 1.03
61 | GAAACACCGT | 1.1
62 | GAGGTTGCCA | 0.936
63 | TTCGTGTCGT | 1.02
64 | TTATGTCGCC | 0.93
65 | AGAGATATAG | 0.995
66 | ATATGGCCTT | 1.02
67 | TTTGATACTA | 1.03
68 | CAGAGGA | 0.973
69 | GCGTTTAAAT | 0.986

Row | Sequence | switch fluorescence ratio
70 | ATTAAGAGCT | 1.01
71 | TCTTTTAGGG | 1.01
72 | CGATTTGAGA | 1.01
73 | AGCTTGTACA | 1
74 | ATCATATCCG | 0.926
75 | GAGGTACAGT | 1.03
76 | ACCGGTTTCG | 0.993
77 | CAGTGAGTGC | 0.941
78 | CGTGGAACAG | 1.04
79 | CCGAAAGGTT | 1.13
80 | AGAATCATAG | 1
81 | GTCCGCATCA | 2.68
82 | AAAGACCTTT | 1
83 | GGAGTAAACG | 1.12
84 | TGAATTAAAG | 0.991
85 | CTTTCATCGG | 0.998
86 | GATCAATGTG | 1
87 | GCAATGATCT | 1.31
88 | CCCGGCAGTG | 1.34
89 | GAGGAGTCAC | 0.991
90 | TTCTGGGTT | 1.03
91 | GGATGTCCTC | 0.972
92 | TCAGTCGGGA | 1.01

Row | Sequence | switch fluorescence ratio
93 | TTCCGAGGGT | 0.994
94 | AGTGGCTGTG | 0.973
95 | CTACCCTGGG | 1.11
96 | ATGAGAAGCG | 0.983
97 | CAACCAAGTA | 1.03
98 | TCGGTGTTGA | 1.04
99 | AGCAGTGGCC | 1.02
100 | GAGTGGGGCT | 0.985
101 | TCATATCGCC | 1
102 | GGCTAGCAAT | 1.56
103 | TAAATACCAG | 0.981
104 | TGGATAGTTT | 1.01
105 | AAATCAGGTC | 1.01
106 | TGTGGCTTAT | 0.969
107 | GATCCATCGG | 0.992
108 | CATGTGGCAT | 1.02
109 | GCGATTGCGC | 0.969
110 | AACTGCAGAT | 1.02
111 | CACCCCGGAC | 1.26
112 | TACAGGATTA | 1.01
113 | AATAGCACT | 1.03
114 | GATCAAGCCT | 1.1
115 | TTGAGTAATA | 1.05

Row | Sequence | switch fluorescence ratio
116 | GGGCCCCCAT | 0.983
117 | TCCGGGTAAG | 0.96
118 | CAGAGCTCGA | 0.973
119 | GGCTAAGTGG | 1.02
120 | CGAGGATCAG | 1.01
121 | TTCTCATGGT | 0.976
122 | GGTGGGCCGG | 0.998
123 | CACACTTAGT | 1.05
124 | AGGAGAGTTC | 1.38
125 | AAAATCTTCT | 1.04
126 | CAGGCCTACT | 1.04
127 | CCTGACTTGC | 1.22
128 | AAATAATACA | 0.966
129 | TATTGCAGAG | 1.01
130 | CCTATCGTGG | 1.05
131 | TGGTCTTCCC | 1
132 | GGGAGACGAC | 0.99
133 | ATTAACTTT | 1.03
134 | CGCATAGTCG | 1.18
135 | TTTGCCGATA | 1.03
136 | AGGGATAATG | 1.01
137 | AGGCACTCTA | 1.09
138 | TAAAATGTAC | 1.06

Row | Sequence | switch fluorescence ratio
139 | TCGTATCAGA | 1.01
140 | ACGGAATTCC | 1.04
141 | TTTCTGTGA | 1
142 | TGGGGTGAAG | 0.99
143 | TGCTTTCTTT | 0.951
144 | CGGACACAGC | 1.14
145 | CTCTCCACCG | 1.29
146 | GGACTAGG | 1.03
147 | TATCGCCGGC | 1.02
148 | CTTAAAGTCT | 1.02
149 | AGAATCCAAT | 1.01
150 | GACGATCTGG | 1.03
151 | CGGCTGATG | 0.998
152 | TCTTGTGAGA | 0.997
153 | AGGTACGTCC | 1.03
154 | ACTCTATATC | 1.11
155 | GCTGTTGACA | 0.956
156 | CATCTATACT | 1.07
157 | GCATGGAAAG | 0.946
